The whole screen tested about 420,000 compounds, of which about 50,000 (12%) were called active. Inconclusive means that the source gave no clear call. Such entries were picked first, then a sample of the others. Calls come from the whole dose curve; as a rule, active = well fitted inhibition curve with a large enough effect; inconclusive = small, poorly fitted or top-dose-only effect; inactive = flat fitted curve, though single readings scatter. Potencies of inconclusive entries are left out as doubtful fits.
Test: qHTS for Inhibitors of human tyrosyl-DNA phosphodiesterase 1 (TDP1): qHTS in cells in presence of CPT; note: nearly all actives have a fitted effect of over 55% in size
Conditions: chicken DT40 Tdp1-/-;hTDP1 cells + 20 nM CPT, ATP luminescence, 48 h; activity change, negative = growth inhibition: at 46.2 µM (top of the series) unless noted
Outline: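 Chicken DT40 Tdp1-/- cells stably complemented with human TDP1 were seeded at 400 cells/well in medium containing 20 nM camptothecin, exposed to pin-transferred compounds, and grown at 37 °C for at least 48 hr. Viability was read as ATP luminescence.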
% is set by controls: 0 for no effect and ±100 for the full control effect; potency is the fitted concentration of half-maximal effect; tags give direction and shape of the fitted curve.

Question: Which Potency does the source give for `O=[N+]([O-])c1cccc(Cl)c1NCCNS(=O)(=O)c1ccc(Cl)cc1` here?
Answer: inconclusive [inhibitor, partial curve, poor fit]

Question: With `Cc1nn(Cc2ccc(Cl)cc2)c(C)c1NC(=O)CSc1n[nH]c(C)c1[N+](=O)[O-]` as the compound, how does the Potency read?
Answer: active: 25.9 µM

Question: With `O=C(NCCN1CCCCC1)c1cc2ccccc2[nH]1` as the compound, how does the “activity change, negative = growth inhibition” value read?
Answer: inactive: 0.447%

Question: Which Potency does the source give for `CCOc1ccc2nc(N(CCN(C)C)C(=O)c3ccc4c(c3)CCCC4)sc2c1` here?
Answer: inconclusive [inhibitor, single point]

Question: With `C[C@@H]1CN([C@@H](C)CO)C(=O)CCCn2nncc2CO[C@H]1CN(C)Cc1ccc2cccnc2c1` as the compound, how does the “activity change, negative = growth inhibition” value read?
Answer: inactive: 0.343%

Question: With `COc1ccccc1C(=O)Nc1nnc([C@H]2C[C@H](O)[C@@H](CO)O2)s1` as the compound, how does the “activity change, negative = growth inhibition” value read?
Answer: inactive: 5.66%

Question: For `N#C/C(=N\Nc1cccc2ccccc12)c1nnc2n1CCCCC2`, which Potency is on record?
Answer: inconclusive [inhibitor, partial curve, poor fit]

Question: For `COc1ccc(COCC(O)CN2CCN(S(=O)(=O)c3c(F)cccc3F)CC2)cc1OC` (stereo unspecified), which Potency is on record?
Answer: inconclusive [inhibitor, partial curve, poor fit]

Question: With `CC(=O)NC(c1ccccc1)c1cc(Cl)c2cccnc2c1O` (stereo unspecified) as the compound, how does the Potency read?
Answer: inconclusive [inhibitor, single point]

Question: For `COC(=O)C1CCN(C2CN(Cc3ccc([N+](=O)[O-])cc3)S(=O)(=O)C2)CC1` (stereo unspecified), which Potency is on record?
Answer: inconclusive [inhibitor, partial curve, poor fit]

Question: For `COc1ccccc1C(C[N+](=O)[O-])c1c[nH]c2ccccc12` (stereo unspecified), which Potency is on record?
Answer: inconclusive [inhibitor, single point]

Question: For `COc1cccc(C(C(=O)NC2CCCC2)N2CCN(c3cc(C)ccc3C)CC2)c1OC` (stereo unspecified), which Potency is on record?
Answer: active: 20.6 µM

Question: Which “activity change, negative = growth inhibition” value does the source give for `S=c1[nH]cc(-c2ccc(Cl)cc2)n1Cc1ccccc1` here?
Answer: inactive: -3.63%

Question: Which Potency does the source give for `Cc1cc(C)c2nc(N(Cc3cccnc3)C(=O)c3cccs3)sc2c1` here?
Answer: inconclusive [inhibitor, single point]

Question: For `CC1c2cc3c(cc2CCN1C(=O)c1ccc(C(F)(F)F)cc1)OCCCO3` (stereo unspecified), which Potency is on record?
Answer: inconclusive [inhibitor, single point]

Question: Which Potency does the source give for `CCOc1cc(/C=N/NC(=O)Cn2nc([N+](=O)[O-])cc2C)ccc1OCc1ccc(F)cc1` here?
Answer: inconclusive [inhibitor, partial curve, poor fit]

Question: With `CCc1ccc(OC2(C)CCN(CCOc3ccc(C)cc3)C2)cc1` (stereo unspecified) as the compound, how does the Potency read?
Answer: inconclusive [inhibitor, single point]

Question: For `Cc1nc2ncnn2c(N2CCC(C(=O)NC3CCCC3)CC2)c1Cc1ccccc1`, which “activity change, negative = growth inhibition” value is on record?
Answer: inactive: -29.1%

Question: Which Potency does the source give for `COc1cc(-c2nc(Cn3nnc(C(=O)Nc4ccc(C)cc4C)c3C)c(C)o2)cc(OC)c1OC` here?
Answer: inconclusive [inhibitor, single point]

Question: Which activity change, negative = growth inhibition does the source give for `COc1ccc(C(=O)Nn2c(SCC(=O)c3ccccc3)nc3ccccc3c2=O)cc1` here?
Answer: inconclusive: -17.6% [inhibitor]

Question: With `Cc1oc(-c2ccccc2F)nc1CS(=O)(=O)CC(=O)NCCc1ccc(Cl)cc1` as the compound, how does the Potency read?
Answer: inconclusive [inhibitor, single point]

Question: For `C#CCN(Cc1ccco1)C(=O)c1ccc(OC2CCN(Cc3ccccn3)CC2)cc1`, which Potency is on record?
Answer: active: 18.4 µM

Question: Which Potency does the source give for `CCCN(C(=O)CCc1nc(-c2ccc(OC)cc2)no1)c1ccccc1F` here?
Answer: inconclusive [inhibitor, partial curve, poor fit]

Question: Which Potency does the source give for `COc1ccc(CC(=O)NCCc2csc3nc(-c4ccccc4F)nn23)cc1` here?
Answer: inconclusive [inhibitor, single point]

Question: For `Cc1ccc(NC(=O)CN(C)S(=O)(=O)c2ccc3[nH]c4c(c3c2)CCCC4)c(Cl)c1`, which Potency is on record?
Answer: inconclusive [inhibitor, single point]

Question: For `CC(C)CCNC(=O)CN1C(=O)NC(c2ccccc2)(c2ccccc2)C1=O`, which “activity change, negative = growth inhibition” value is on record?
Answer: inactive: -10%

Question: Which Potency does the source give for `Cc1c(NS(=O)(=O)c2cc(C(=O)N(C)Cc3ccccc3)ccc2Cl)c(=O)n(-c2ccccc2)n1C` here?
Answer: inconclusive [inhibitor, partial curve]

Question: Which Potency does the source give for `CCCCn1cnc2c(c1=O)c1nc3ccccc3nc1n2Cc1ccc2c(c1)OCO2` here?
Answer: inconclusive [inhibitor, partial curve]

Question: With `COc1ccc(CN2CCN(Cc3ccccc3F)CC2)cc1OC` as the compound, how does the “activity change, negative = growth inhibition” value read?
Answer: inactive: -12.1%

Question: For `CCCCCSc1nc2c(cnn2-c2ccccc2)c(=O)[nH]1`, which Potency is on record?
Answer: inconclusive [inhibitor, single point]

Question: For `COc1ccc(C2=Nc3cccc4cccc(c34)N2)cc1`, which Potency is on record?
Answer: inconclusive [inhibitor, single point]

Question: With `CCn1c(SCC(=O)Nc2cccc(C)c2)nc2nc3c(cc2c1=O)COC(C)(C)C3` as the compound, how does the Potency read?
Answer: active: 25.9 µM

Question: Which Potency does the source give for `COc1ccc(N2CCN(CC(=O)Nc3c(C)cccc3C)CC2)cc1` here?
Answer: inconclusive [inhibitor, single point]

Question: Which “activity change, negative = growth inhibition” value does the source give for `CCc1cccc(N(C(=O)c2csnn2)C(C(=O)NC2CCCCC2)c2cccnc2)c1` (stereo unspecified) here?
Answer: inactive: -0.302%

Question: With `CCN(CC)S(=O)(=O)c1cc(C)ccc1NC(=S)Nc1cccnc1` as the compound, how does the Potency read?
Answer: inconclusive [inhibitor, single point]

Question: With `COc1ccc(-n2c(C)cc(C(=O)Cn3nc(C(=O)O)c4ccccc4c3=O)c2C)cc1` as the compound, how does the Potency read?
Answer: inconclusive [inhibitor, single point]

Question: With `C=CCn1c2ccccc2c2nnc(SCC(=O)NC(C(=O)OC)C(C)C)nc21` (stereo unspecified) as the compound, how does the Potency read?
Answer: inconclusive [inhibitor, single point]

Question: With `COc1ccc(N2CCN(c3oc(-c4ccc(COc5cccc(C)c5)o4)nc3C#N)CC2)cc1` as the compound, how does the Potency read?
Answer: inconclusive [inhibitor, partial curve, poor fit]

Question: Which Potency does the source give for `Cc1ccc(F)c(Oc2cc(NN3CCCCC3)c([N+](=O)[O-])cc2[N+](=O)[O-])c1` here?
Answer: inconclusive [inhibitor, single point]

Question: With `Cc1cccc(CCNS(=O)(=O)c2ccc3c(c2)NC(=O)CO3)c1` as the compound, how does the “activity change, negative = growth inhibition” value read?
Answer: inactive: -23.9%

Question: Which Potency does the source give for `NS(=O)(=O)c1ccc(N/N=C/c2ccc[nH]2)c([N+](=O)[O-])c1` here?
Answer: inconclusive [inhibitor, single point]

Question: Which Potency does the source give for `O=C(CSc1nc2c([nH]c3ccccc32)c(=O)n1-c1ccccc1)Nc1ccc2c(c1)OCCO2` here?
Answer: inconclusive [inhibitor, single point]

Question: With `COc1ccc2c(c1OC)OCC2C` (stereo unspecified) as the compound, how does the Potency read?
Answer: inconclusive [inhibitor, single point]

Question: Which Potency does the source give for `CCOC(=O)c1cnc(SC2CC(=O)N(c3ccc(C)cc3)C2=O)nc1N` (stereo unspecified) here?
Answer: active: 3.26 µM

Question: With `O=C(Nc1cccc(-c2cn3ccccc3n2)c1)c1cc2ccccc2oc1=O` as the compound, how does the Potency read?
Answer: active: 2.06 µM

Question: With `Cc1cccc(NC(=O)c2sc3nc(N4CCOCC4)c4c(c3c2N)CC(C)(C)OC4)c1` as the compound, how does the Potency read?
Answer: inconclusive [inhibitor, partial curve]

Question: With `CCC1C=C(c2ccccc2)C=CN=C1N(CC)CC` (stereo unspecified) as the compound, how does the Potency read?
Answer: inconclusive [inhibitor, single point]

Question: For `CC(C)(C)NC(=O)C(c1ccnc2ccccc12)n1c(=O)c(-c2ccco2)nc2ccccc21` (stereo unspecified), which Potency is on record?
Answer: inconclusive [inhibitor, single point]

Question: For `Cc1cc(NC(=O)c2ccoc2C)ccc1Br`, which Potency is on record?
Answer: inconclusive [inhibitor, single point]

Question: For `COc1ccc(NC(=O)Cn2ncc3c2-c2ccccc2OC3)cc1Cl`, which Potency is on record?
Answer: inconclusive [inhibitor, single point]

Question: Which Potency does the source give for `COc1ccc(OC)c(NC(=O)C(CC(C)C)NC(=O)C2CCCCC2)c1` (stereo unspecified) here?
Answer: inconclusive [inhibitor, single point]

Question: With `COc1ccc(/C(N)=N/OC(=O)c2cccs2)cc1OC` as the compound, how does the Potency read?
Answer: active: 11.6 µM

Question: Which Potency does the source give for `COCCCNc1ccn2nc(-c3ccc(OCc4ccccc4)cc3)cc2n1` here?
Answer: active: 16.4 µM

Question: With `CCOC(=O)C1=CN(Cc2cccc(F)c2)S(=O)(=O)N(C)C1c1ccc(C(F)(F)F)cc1` (stereo unspecified) as the compound, how does the Potency read?
Answer: inconclusive [inhibitor, single point]

Question: Which activity change, negative = growth inhibition does the source give for `O=C(NCCC1CCCCN1S(=O)(=O)c1ccccc1)C(=O)NCc1ccco1` (stereo unspecified) here?
Answer: inconclusive: -31.8% [inhibitor]

Question: With `COc1ccc([C@@H]2CNC(=O)C2)cc1OC1CCCC1` as the compound, how does the Potency read?
Answer: inconclusive [inhibitor, partial curve, poor fit]

Question: Which Potency does the source give for `CCN1C(=O)/C(=C/C=C2\C=CN(CC)c3ccccc32)SC1=S` here?
Answer: active: 16.4 µM

Question: For `CCOc1ccc(CCNC(=O)c2ccc(-n3c(C)cc4c3CCC(C)C4)cc2)cc1OCC` (stereo unspecified), which Potency is on record?
Answer: active: 14.6 µM

Question: For `O=C(Nc1ccccc1N1CCOCC1)c1cccc2ccccc12`, which activity change, negative = growth inhibition is on record?
Answer: inconclusive: -31.4% [inhibitor]

Question: Which Potency does the source give for `CCN(CC)c1sc(S(=O)(=O)c2ccccc2)nc1S(=O)(=O)c1ccc(C)cc1` here?
Answer: inconclusive [inhibitor, single point]

Question: For `CCC(=O)c1cc2c(cc1NC(=O)c1ccccc1F)OCCO2`, which Potency is on record?
Answer: inconclusive [inhibitor, single point]

Question: For `CC1=C(C(=O)Nc2ccc(C)cc2Cl)C2(CCCCCC2)OC1=O`, which Potency is on record?
Answer: inconclusive [inhibitor, single point]

Question: With `Cc1cccc2sc(NC(=O)c3ccc(OCC4CCCO4)cc3)nc12` (stereo unspecified) as the compound, how does the “activity change, negative = growth inhibition” value read?
Answer: inactive: -92.3%

Question: For `CC(=O)N1c2ccc(S(=O)(=O)NCCC(=O)Nc3ccc(Br)c(C)c3)cc2CC1C` (stereo unspecified), which Potency is on record?
Answer: active: 8.2 µM

Question: For `Cc1ccc(C)c2sc(N3CCN(C(=O)C(C)(C)C)CC3)nc12`, which Potency is on record?
Answer: inconclusive [inhibitor, partial curve]

Question: For `O=C(Nc1cccc(C(F)(F)F)c1)c1csc([C@@H]2O[C@H](CO)[C@@H](O)[C@H]2O)n1`, which Potency is on record?
Answer: inconclusive [inhibitor, partial curve]
